The supplement of paper PMC8728848
This is one part of the list.

How the values were obtained:
Assay in all cases: glycan array binding signal (z-score within array); higher = stronger binding
Details in all cases: glycan notation: IUPAC condensed, linker removed
[1] = target: Gal(b1-4)GlcNAc(b1-3)[Gal(b1-4)GlcNAc(b1-6)]GalNAc
How it was run: (§1)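 Arrays were curated from the Consortium for Functional Glycomics database, 3228 in total, and kept only where the protein sequence was available. Binding is expressed as a within-array Z-score. This score was averaged across arrays of the same protein sequence at different concentrations or buffers and across linkers, and negative values can be read as non-binding.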

[2] = target: Gal(b1-4)GlcNAc(b1-6)GalNAc
How it was run: as §1

[3] = target: Gal(b1-4)GlcNAc(b1-6)[Gal(b1-3)]GalNAc
How it was run: as §1

[4] = target: Gal(b1-4)GlcNAc(b1-6)[Gal(b1-3)]GlcNAc
How it was run: as §1

[5] = target: Gal3S(b1-3)GalNAc
How it was run: as §1

[6] = target: Gal3S(b1-3)GlcNAc
How it was run: as §1

[7] = target: Gal3S(b1-3)[Fuc(a1-4)]GlcNAc
How it was run: as §1

[8] = target: Gal3S(b1-4)Glc
How it was run: as §1

[9] = target: Gal3S(b1-4)Glc6S
How it was run: as §1

[10] = target: Gal3S(b1-4)GlcNAc
How it was run: as §1

[11] = target: Gal3S(b1-4)GlcNAc6S
How it was run: as §1

[12] = target: Gal3S6S(b1-4)GlcNAc
How it was run: as §1

[13] = target: Gal3S6S(b1-4)GlcNAc6S
How it was run: as §1

[14] = target: Gal4S(b1-4)GlcNAc
How it was run: as §1

[15] = target: Gal4S6S(b1-4)GlcNAc
How it was run: as §1

[16] = target: Gal6S(b1-4)Glc
How it was run: as §1

[17] = target: Gal6S(b1-4)Glc6S
How it was run: as §1

[18] = target: Gal6S(b1-4)GlcNAc
How it was run: as §1

[19] = target: GalNAc(a1-3)Gal
How it was run: as §1

[20] = target: GalNAc(a1-3)GalNAc
How it was run: as §1

[21] = target: GalNAc(b1-3)Gal(a1-4)Gal(b1-4)GlcNAc
How it was run: as §1

[22] = target: GalNAc(b1-4)GlcNAc
How it was run: as §1

[23] = target: Glc(a1-4)Glc
How it was run: as §1

[24] = target: Glc(a1-6)Glc(a1-6)Glc
How it was run: as §1

[25] = target: Glc(b1-4)Glc
How it was run: as §1

[26] = target: Glc(b1-6)Glc
How it was run: as §1

[27] = target: GlcA(b1-3)Gal
How it was run: as §1

[28] = target: GlcA(b1-6)Gal
How it was run: as §1

[29] = target: GlcNAc(a1-3)Gal(b1-4)GlcNAc
How it was run: as §1

[30] = target: GlcNAc(a1-6)Gal(b1-4)GlcNAc
How it was run: as §1

[31] = target: GlcNAc(b1-2)Gal(b1-3)GlcNAc
How it was run: as §1

[32] = target: GlcNAc(b1-2)Man(a1-3)[GlcNAc(b1-2)Man(a1-6)]Man(b1-4)GlcNAc(b1-4)GlcNAc
How it was run: as §1

[33] = target: GlcNAc(b1-3)Gal
How it was run: as §1

[34] = target: GlcNAc(b1-3)Gal(b1-3)GalNAc
How it was run: as §1

[35] = target: GlcNAc(b1-3)Gal(b1-4)Glc
How it was run: as §1

[36] = target: GlcNAc(b1-3)Gal(b1-4)GlcNAc
How it was run: as §1

[37] = target: GlcNAc(b1-3)Gal(b1-4)GlcNAc(b1-3)Gal(b1-4)GlcNAc
How it was run: as §1

B1: NakA (Mycobacterium tuberculosum) (protein)
chain: SVVKPTKVTVFSPDGGADNPGEADLAIDGNPATSWKTDIYTDPVPFPSFKNGVGLMLQLPQATVVGTVAIDVASTGTKVEIRSASTPTPATLEDTAVLTSATALRPGHNTISVEAAAPTSNLLVWISTLGTTDGKSQADISEITIYAASD
glycan array binding signal (z-score) [1]: -0.414
glycan array binding signal (z-score) [2]: -0.141
glycan array binding signal (z-score) [3]: -0.553
glycan array binding signal (z-score) [4]: -0.465
glycan array binding signal (z-score) [5]: -0.361
glycan array binding signal (z-score) [6]: -0.117
glycan array binding signal (z-score) [7]: -0.128
glycan array binding signal (z-score) [8]: -0.516
glycan array binding signal (z-score) [9]: -0.365
glycan array binding signal (z-score) [10]: -0.408
glycan array binding signal (z-score) [11]: -0.367
glycan array binding signal (z-score) [12]: -0.287
glycan array binding signal (z-score) [13]: -0.182
glycan array binding signal (z-score) [14]: -0.338
glycan array binding signal (z-score) [15]: -0.438
glycan array binding signal (z-score) [16]: -0.278
glycan array binding signal (z-score) [17]: -0.213
glycan array binding signal (z-score) [18]: -0.327
glycan array binding signal (z-score) [19]: -0.414
glycan array binding signal (z-score) [20]: 0.081
glycan array binding signal (z-score) [21]: -0.418
glycan array binding signal (z-score) [22]: -0.305
glycan array binding signal (z-score) [23]: -0.157
glycan array binding signal (z-score) [24]: -0.203
glycan array binding signal (z-score) [25]: -0.512
glycan array binding signal (z-score) [26]: 0.014
glycan array binding signal (z-score) [27]: 0.062
glycan array binding signal (z-score) [28]: -0.548
glycan array binding signal (z-score) [29]: -0.002
glycan array binding signal (z-score) [30]: 0.447
glycan array binding signal (z-score) [31]: -0.263
glycan array binding signal (z-score) [32]: -0.45
glycan array binding signal (z-score) [33]: -0.245
glycan array binding signal (z-score) [34]: -0.169
glycan array binding signal (z-score) [35]: -0.134
glycan array binding signal (z-score) [36]: -0.606
glycan array binding signal (z-score) [37]: -0.586
